Test results taken from PubChem BioAssay AID1963576 (National Center for Advancing Translational Sciences (NCATS), 2024).
Among all 46,000 compounds or so, about 60 (0.1%) were called active. Not shown: some 3% with an inconclusive outcome. Calls follow the shape of the dose curve; as a rule, active = well fitted inhibition curve with a large enough effect; inconclusive = small, poorly fitted or top-dose-only effect; inactive = no such curve, though single readings can be large or run the other way. The list shows a part of the results.

experiment: Primary qHTS assay for Inhibitors of ovarian cancer metastasis using an organotypic tumor microenvironment (TME) model.; also: nearly all actives have a fitted effect of over 65% in size;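 as to activity change, negative = inhibition: plate controls were DMSO wells for no effect and tomatine positive control wells for full effect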; details: SKOV3ip1-GFP adhesion/invasion on 3D omental model, fluorescence; series mostly up to 45.8 µM; activity change, negative = inhibition: at the top concentration
In short: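 Primary human omental fibroblast/mesothelial 3D culture pre-formed 48 h. SKOV3ip1-GFP cells added with compounds (0.36-46 umol/L), incubated 2 h RT/16 h 37 C, fixed; GFP cells quantified at 488/509 nm.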

outcome, inactive:
CCC(C(=O)N1CCN(c2ccc(OC)cc2)CC1)n1nc(C)n2c(cc3occc32)c1=O (stereo unspecified)
COCCNC(=O)c1ccc2c(c1)N(Cc1c(F)cccc1Cl)C(=O)c1ccccc1S2
O=C(Nc1ccccc1C(F)(F)F)N1CCC2(CC1)Oc1ccccc1C(=O)N2Cc1ccccc1F
CC(C)(Oc1ccc(Cl)cc1)C(=O)Nc1nnc2n1CCS2
CCOc1ccc(NC(=O)Cn2cc(C(=O)c3ccccc3)c(=O)c3cc4c(cc32)OCCO4)cc1
CC(C)(C)c1ccc(C(=O)N2CCN(Cc3cc(=O)n4nc(-c5ccccc5F)sc4n3)CC2)cc1
CCC(=O)N1CCc2cc(Br)cc(S(=O)(=O)NCc3ccccc3)c21
COc1ccccc1-c1nc(SCC(=O)Nc2ccc(C)c(C)c2)n[nH]1
CCc1nn2c(=O)cc(COC(=O)c3ccccc3NC(=O)c3cccs3)nc2s1
COC(=O)c1ccc(NC(=O)CC2C(=O)N(c3cccc(C)c3)C(=O)N2C2CCCC2)cc1 (stereo unspecified)

Activity change, negative = inhibition, inactive:
O=c1c2ccccc2nc(N2CCN(c3cccc(Cl)c3)CC2)n1-c1ccccc1 0.0477%
CCN(CC)CCCNC(=O)c1nn(-c2ccc(OC)cc2)c(=O)c2c1c1ccccc1n2C 8.76%
CC(=O)Nc1ccc(NC(=O)CCc2c(C)nc3c(c(C)nn3-c3ccccc3)c2C)cc1 -6.61%
CCCCOc1ccc(C(=O)Nc2nc3c(s2)CC(C)CC3)cc1 (stereo unspecified) -4.08%
CCCc1cc(=O)[nH]c(Nc2ccc(C)c(O)c2)n1 0.648%
CCOC(=O)c1noc2ncnc(Nc3cccc(C(F)(F)F)c3)c12 7.38%
COC(=O)c1cccc(CN2C(=O)SC(Nc3ccc(Cl)cc3)C2=O)c1 (stereo unspecified) 16.2%
CCCCNC(=O)CC1N=C2c3ccccc3N=C(SCC(=O)NCc3ccccc3Cl)N2C1=O (stereo unspecified) -3.86%
Cc1ccc(NC(=O)CCC(=O)N2CCSc3ccccc32)cc1 6.77%
COc1cccc(C(=O)Nc2cccc(OCc3cc(=O)n4cccc(C)c4n3)c2)c1 -0.562%
Cc1cnc2c(c1SCC(=O)NCc1ccccc1Cl)c(=O)n(C)c(=O)n2C 20.6%
Cc1ccn2c(Nc3ccccc3C)c(-c3cccnc3)nc2c1 -24.3%
Cc1ccc(C)c(N2CCN(C(=O)c3nn(C)c4c3CS(=O)(=O)c3ccccc3-4)CC2)c1 -20%
O=C(COc1ccccc1)Nc1nnc(SCc2cc(=O)c3ccccc3[nH]2)s1 -0.381%
Clc1ccc(-c2noc(-c3cccnc3N3CCN(c4ccccc4)CC3)n2)cc1 -4.87%
COC(=O)c1ccc(NC(=O)CC2C(=O)N(c3ccc(C)cc3)C(=O)N2Cc2ccc(OC)cc2)cc1 (stereo unspecified) -11.9%
CCc1ccccc1Nc1cc(C(=O)NCCCN(C)C2CCCCC2)c2ccccc2n1 -12.5%
Cc1ccc(C2c3[nH]c4ccccc4c3CCN2C(=O)CCc2ccccc2)cc1 (stereo unspecified) -16%
Cn1c(=O)c(=O)n(C)c2cc(S(=O)(=O)Nc3ccc(Cl)c(C(F)(F)F)c3)ccc21 -5.01%
O=C(CC(NCc1cccnc1)C(=O)O)Nc1ccc(O)cc1 (stereo unspecified) -3.85%
CCOc1ccc(CCNC(=O)C2CCN(Cc3nc(-c4ccccc4C)oc3C)CC2)cc1OCC 4.39%
CCN(C(=O)CSc1nc2ccccc2n1CC(=O)N1CCCC(C)C1)c1ccccc1 (stereo unspecified) -4.79%
Cc1cc(=O)oc2cc(OCC(=O)Nc3c(C(C)C)cccc3C(C)C)ccc12 -6.81%
COc1cc(OC)c(NC(=O)Cn2cnc3nc4c(cc3c2=O)CCCC4)cc1Cl 1.32%
Oc1ccc(C2=Cc3ccc(O)cc3OC2)cc1 4.46%
CCOc1ccc(CNC(=O)Cc2ccc(NC(=O)N3CCCCc4ccccc43)cc2)cc1OC 3.13%
Cc1ccc(NC(=O)C2CCC(CNS(=O)(=O)c3ccc4c(c3)C(C)(C)C(=O)N4C)CC2)cc1 (stereo unspecified) -10.3%
O=C(CCCCCn1c(=O)[nH]c2ccccc2c1=O)NCc1ccc(Cl)cc1 4.63%
Cc1cc(C)c(NC(=O)Nc2csc3c2CCCC3)c(C)c1 1.17%
COc1cc(NC(=O)CCNC(=O)Cn2cnc3ccccc3c2=O)cc(OC)c1OC 7.1%
CCCc1cc(N2CCN(c3ccc(OC)cc3)CC2)n2cnnc2n1 -2.38%
COc1ccc(CCn2c(=O)c3cccnc3n(CC(=O)Nc3c(C)cc(C)cc3C)c2=O)cc1OC 3.82%
Fc1ccc(-n2ncc3c(N4CCN(c5ccccc5F)CC4)ncnc32)cc1 -1.25%
Cc1sc2ncn(CC(=O)N(C)c3cccc(C(F)(F)F)c3)c(=O)c2c1S(=O)(=O)N1CCN(c2ncccn2)CC1 3.53%
CCN(CC)C(=O)COc1ccc(-c2nnc(Nc3ccc(OC)c(C(=O)NC)c3)c3ccccc23)cc1 -9.09%
O=C(O)c1cc(=O)c2c(OCC(O)COc3cccc4oc(C(=O)O)cc(=O)c34)cccc2o1 -19.1%
CSc1ccc(CCNC(=O)C2CCN(c3ncnc4c3nc3n4CCCCC3)CC2)cc1 4.95%
O=C(CCn1ccc2cc(S(=O)(=O)N3CCCC3)ccc21)NCc1ccccc1Cl -16.7%
CCn1nc(C)c2c(-c3ccccc3)cc(=O)n(C(C)C(=O)NCCc3ccccc3)c21 (stereo unspecified) 3.62%
Cc1cc(=O)oc2c3c(ccc12)OCN(Cc1ccc(Cl)cc1)C3 9.46%
Fc1ccccc1Nc1ncnc2c1nc1n2CCCCC1 -2.12%
O=C(NCCc1ccc(Cl)cc1)c1ccc2c(c1)N(Cc1cccc(Cl)c1)C(=O)c1ccccc1S2(=O)=O -1.58%
COc1cccc(-c2nnc3sc(CN4CCCCC4)cn23)c1 -20.8%
CCC1CCCCN1C(=O)Cn1c(=O)n(CCCCCC(=O)NCc2ccccc2Cl)c(=O)c2sccc21 (stereo unspecified) -0.927%
CCOc1ccc(NC(=O)CS(=O)(=O)Cc2nc(-c3ccc(C)cc3)oc2C)cc1 -9.45%
O=C(COc1ccccc1)Nc1ccc2nc(SCC(=O)N3CCCC3)sc2c1 -4.04%
COc1ccc(C2CC(=O)Oc3c2c(=O)n(C)c2ccccc32)c(OC)c1OC (stereo unspecified) -6.37%
CCCCc1nc2cc(C=CC(=O)NO)ccc2n1CCN(CC)CC -9.92%
CCCCOc1ccc(CC(=O)NO)cc1 -10.8%
COc1ccc(OC)c2sc(N(CCCN(C)C)C(=O)c3ccco3)nc12 -23.3%
COc1ccc(C2c3c(oc4ccccc4c3=O)C(=O)N2c2nc(C)c(C)s2)cc1 (stereo unspecified) -11%
